{
  "source": "PubChem BioAssay (NCATS)",
  "note": "“And” between values parts separate entries of the source, which are not always exact repeats. Equal entries are not always repeated. The inconclusive results got no clear call from the source; some entries with a clear call stand among them for comparison. Where the call is inconclusive, the potency comes from a doubtful curve fit. The source made the active and inactive calls. Calls come from the whole dose curve; as a rule, active = well fitted inhibition curve with a large enough effect; inconclusive = small, poorly fitted or top-dose-only effect, or effect the other way; inactive = flat fitted curve, though single readings scatter. Potency is the fitted concentration of half-maximal effect; tags give direction and shape of the fitted curve.",
  "data": [
    {"assay": "qHTS for Inhibitors of Plasmodium falciparum (CP250) proliferation (AID 504320)", "details": "P. falciparum CP250 in erythrocytes, SYBR Green DNA, 72 h; series mostly up to 6.7 µM; activity change, negative = inhibition: at the top concentration", "description": "Plasmodium falciparum is a virulent malarial parasite that kills 1-2 million people worldwide each year. Malaria not only inflicts tremendous suffering and morbidity on the human population, but has dramatically influenced the course of civilization with profound sociological and economic implications (Shah, S. 2010). Transmitted by mosquitoes, the sporozoite form of the parasite enters the blood stream to infect hepatocytes, where they become merozoites that infect red blood cells (erythrocytes). Within erythrocytes, merozoites begin a […] cycle of growth and division, after which the parasite is released to infect new red blood cells. Gametocytes, which form within erythrocytes as well, circulate in the bloodstream and are ingested by the mosquito, thereby completing the life cycle (see CDC website). To profile malarial lines for differential chemical responses and to identify inhibitors of malarial growth, an assay that measures P. falciparum growth and replication within erythrocytes was employed. This assay uses a DNA binding fluorescent dye (SYBR Green) to detect parasite DNA following cell lysis. Because mature erythrocytes lack DNA, only Plasmodium-derived DNA is detected. The P. falciparum line cp250, derived from a malarial isolate from Cambodia, (Mu, J., et al. 2010) was added to the panel of lines, Dd2, HB3, 7G8 and GB4 in this study. Laboratory of Assay Development and Screening Technology [ADST] and NIH Chemical Genomics Center [NCGC] Boston University, Chemistry Department, Center for Chemical Methodology and Library Development [CMLD-BU] NIH National Institute of Allergy and Infectious Diseases [NIAID]\nADST Assay Protocol Summary: The 1536-well SYBR Green viability assay was based on the method of Bennett et al (2004) and described previously in 1536-well format (Yuan J., et al. 2009). For screening 3 ul culture medium was dispensed into 1536 well black clear bottom plates (Aurora Biotechnologies) using a Multidrop Combi (Thermo Fisher Scientific Inc.), 23 nL compounds in DMSO were added by a pin transfer (Cleveland, P.H. and Koutz, P.J, 2005) using a pin tool-based delivery system (Kalypsys), and 5 ul of erythrocytes infected with P. falciparum one of five lines (cp250, Dd2, HB3, 7G8 or GB4, 0.3% parasitemia, 2.5% hematocrit final concentration) were added. The plates were incubated at 37C in a humidified incubator in 5% CO2 for 72 h, and 2 ul lysis buffer (20 mM Tris HCl, 10 mM EDTA, 0.16% saponin, 1.6% triton X, 10X SYBR Green I (supplied as 10,000X final concentration by Invitrogen) was added to each well. The plates were mixed for 25 sec with gentle shaking and incubated overnight at room temperature in the dark. The following morning, fluorescence intensity at 485(14) nm excitation and 535(25) nm emission wavelengths was measured on an EnVision (Perkin Elmer) plate reader. Plate reads were normalized relative to the control inhibitor (0.29 uM artemisinin) and vehicle (DMSO) wells present on each plate and then corrected by an algorithm using vehicle-only control plates at the beginning and end of the compound plate stack. References Shah, S. (2010). The Fever: how malaria has ruled humankind for 500,000 years. New York, Sarah Crichton Books. CDC web site, http://www.cdc.gov/malaria/about/biology/index.html Mu, J., Myers, R.A., Jiang, H., Liu, S., Ricklefs, S., Waisberg, M., Chotivanich, K., Wilairatana, P., Krudsood, S., White, N.J., et Plasmodium falciparum genome-wide scans for positive selection, recombination hot spots and resistance to antimalarial drugs Nature Genetics 2010, 42, pp 268-271 Bennett TN, Paguio, M., Gligorijevic, B., Seudieu, C., Kosar, A. D., Davidson, E., and Roepe, P. D. Novel, rapid, and inexpensive cell-based quantification of antimalarial drug efficacy Antimicrobial Agents Chemother. 2004, 48(5): pp 1807-10 Yuan J, Johnson RL, Huang RL, Wichterman J, Jiang HY, Hayton K, Fidock DA, Wellems TE, Inglese J, Austin CP, Su XZ. […]", "values": [
      {"smiles": "COC(=O)C1=C(C(=O)OC)[C@@H]2N(Cc3ccccc3)c3ccccc3[C@@]23C[C@@H](C(=O)OC)N(S(=O)(=O)c2ccc([N+](=O)[O-])cc2)C3=N1", "Potency": "inconclusive: 3.79 µM [inhibitor, single point]"},
      {"smiles": "COC(=O)N1C2=C(c3ccccc3[C@@H]1CC(=O)Nc1ccc3cc4ccccc4cc3c1)[C@@H]1C(=O)N(c3ccccc3)C(=O)[C@@H]1[C@H](C)C2", "Potency": "inconclusive: 4.26 µM [inhibitor, single point]"},
      {"smiles": "COC(=O)N1C(C2CC2)=Cc2ccccc2C1CC(C)=O", "note": "(stereo not given)", "Potency": "inconclusive: 0.675 µM [inhibitor, partial curve, poor fit]"},
      {"smiles": "CC(=O)OC[C@H]1O[C@H](C#Cc2ccccc2Cl)C=C[C@H]1OC(C)=O", "Potency": "inconclusive: 2.39 µM [inhibitor, partial curve, poor fit]"},
      {"smiles": "Cc1ccccc1Nc1oc(-c2ccccc2)nc1-c1ccccc1F", "Potency": "inconclusive: 2.69 µM [inhibitor, single point]"},
      {"smiles": "CCCC[C@@H]1CN2[C@@H](CC[C@H](C)[C@@H]2c2ccc(Br)cc2)C(=O)O1", "Potency": "inconclusive: 4.26 µM [inhibitor, partial curve, poor fit]"},
      {"smiles": "COC(=O)C1=C(C(=O)OC)[C@@H]2N(C)c3ccc(OC)cc3[C@@]23C[C@@H](C(=O)OC)N(S(=O)(=O)c2ccc(Br)cc2)C3=N1", "Potency": "inconclusive: 3.01 µM [inhibitor, single point]"},
      {"smiles": "CCc1cc2c(nc1CC)CCN(CCC(C)=NOC[C@@H](O)COCc1ccco1)C2", "activity change, negative = inhibition": "inactive: 3.45%"},
      {"smiles": "COC[C@@H](O)[C@H]1OCc2ccccc2[C@@H]1C=Cc1ccccc1", "Potency": "inconclusive: 1.69 µM [inhibitor, single point]"},
      {"smiles": "CCN1C(=NCc2cccc(C(F)(F)F)c2)NC(c2cccc(C(F)(F)F)c2)C(C(=O)OC)=C1C", "note": "(stereo not given)", "Potency": "active: 0.757 µM"},
      {"smiles": "FC(F)(F)c1ccc(-c2nc(-c3ccccc3)oc2NCc2ccccc2)cc1", "Potency": "inconclusive: 1.9 µM [inhibitor, single point]"},
      {"smiles": "COC(=O)C1=C(C(=O)OC)[C@@H]2N(CC=C(C)C)c3ccccc3[C@@]23CCC(=O)N(Cc2cccc(C(F)(F)F)c2)C3=N1", "Potency": "inconclusive: 3.01 µM [inhibitor, single point]"},
      {"smiles": "CC(CCN1CCCCc2nc(C)c(C)cc21)=NO[C@H](C)c1cn([C@@H]2COC[C@@H]2O)nn1", "Potency": "inconclusive: 1.69 µM [inhibitor, partial curve, poor fit]"},
      {"smiles": "COc1ccc(O[C@@H]2[C@H](O)CO[C@@H]2C=CC#Cc2ccccc2)cc1", "Potency": "inconclusive: 1.9 µM [inhibitor, single point]"},
      {"smiles": "CC(C)(C)Nc1oc(-c2ccccc2)nc1-c1ccc(C(F)(F)F)cc1", "Potency": "inconclusive: 4.26 µM [inhibitor, partial curve, poor fit]"},
      {"smiles": "CC(=O)[C@@H]1[C@@H](C)N(Cc2ccccc2)C(=O)N[C@H]1c1ccccc1", "Potency": "inactive and inconclusive: 1.69 µM [inhibitor, partial curve, poor fit]"},
      {"smiles": "COC(=O)C1=C(C)N(CC2CC2)C(N(C)Cc2ccc(OC)cc2)=NC1c1ccccc1", "note": "(stereo not given)", "Potency": "inconclusive: 1.9 µM [inhibitor, single point]"},
      {"smiles": "COC(=O)[C@@]1(C=C[C@@H](C)[C@H](OC)c2ccccc2Br)[C@@H]2OCCC[C@@H]21", "activity change, negative = inhibition": "inactive: 7.57%"},
      {"smiles": "C#CCN1C(=O)[C@]2(O[C@H](COc3ccccc3)CC3=CCCC32)c2c(Br)cccc21", "note": "(stereo not given in full)", "Potency": "inconclusive: 1.69 µM [inhibitor, partial curve, poor fit]"},
      {"smiles": "COc1ccc(-c2nc3c(c4c2C[C@H](c2ccccc2)OC4)CN(S(=O)(=O)c2ccc(C)cc2)CC3)c(C)c1", "Potency": "inconclusive: 2.13 µM [inhibitor, single point] and inconclusive: 3.38 µM [inhibitor, single point]"},
      {"smiles": "CC(C)[C@@H](OCc1ccccc1)[C@H](C)C=NOC[C@@H](C)[C@H](OCc1ccccc1)C(C)C", "activity change, negative = inhibition": "inactive: -0.208%"},
      {"smiles": "COC1=C[C@H](C(=O)NCc2ccc(Br)cc2)C(C)C(c2ccccc2)CC1=O", "note": "(stereo not given in full)", "activity change, negative = inhibition": "inactive: 1.98%"},
      {"smiles": "CC(C)OC(=O)[C@@H]1CC[C@H](C)[C@@H](CCC[C@@H]2CC=C[C@H](CC#N)O2)O1", "activity change, negative = inhibition": "inactive: 4.92%"},
      {"smiles": "CCN1C(=NCc2ccc(OC)cc2)N[C@@H](CCc2ccccc2)[C@H](C(=O)NCc2ccc(OC)cc2)[C@H]1C", "activity change, negative = inhibition": "inactive: -4.04%"},
      {"smiles": "COC(=O)C1=C(C)N(Cc2ccccc2)C(=S)NC1c1ccc(Br)cc1", "note": "(stereo not given)", "activity change, negative = inhibition": "inactive: 3.54%"},
      {"smiles": "C=CCN=C1NC(c2cccc(C(F)(F)F)c2)C(C(=O)OC)=C(C)N1Cc1ccccc1", "note": "(stereo not given)", "Potency": "inconclusive: 1.51 µM [inhibitor, partial curve, poor fit]"},
      {"smiles": "COc1ccc([C@@H](NC(=O)C(F)(F)F)C2CCCC=C2c2ccccc2)cc1OC", "note": "(stereo not given in full)", "Potency": "inconclusive: 4.26 µM [inhibitor, single point]"},
      {"smiles": "CC(C)(C)Nc1oc(-c2ccccc2)nc1-c1ccccc1", "activity change, negative = inhibition": "inactive: -17.7%"},
      {"smiles": "CC(=O)OC[C@H]1O[C@H](CCON=C(C)CCN2CCCc3nc(C)c(C)cc32)C=C[C@H]1OC(C)=O", "Potency": "inconclusive: 1.35 µM [inhibitor, partial curve, poor fit]"},
      {"smiles": "CC(C)[C@@H](OCc1ccccc1)[C@H](C)CON=C1[C@H]2CCn3c(=O)n(-c4ccccc4)c(=O)n3[C@@H]2[C@H](O)[C@@H]2O[C@H]12", "Potency": "inconclusive: 1.9 µM [inhibitor, partial curve, poor fit]"},
      {"smiles": "CCCCS(=O)(=O)N1C2=NC(C(=O)OC)=C(C(=O)OC)[C@@H]3N(Cc4ccccc4)c4ccccc4[C@]23C[C@H]1C(=O)OC", "Potency": "inconclusive: 3.79 µM [inhibitor, single point]"},
      {"smiles": "COc1ccc(-c2nc(-c3ccccc3)c(NC(C)C)o2)cc1", "Potency": "inconclusive: 2.13 µM [inhibitor, single point]"},
      {"smiles": "COC(=O)C1=C(C(=O)OC)[C@@H]2N(C)c3ccc(OC)cc3[C@@]23C[C@@H](C(=O)OC)N(S(=O)(=O)c2ccc(C#N)cc2)C3=N1", "activity change, negative = inhibition": "inactive: 0.784%"},
      {"smiles": "CCN1C(=O)N(S(=O)(=O)c2ccc(C)cc2)C(c2ccccc2)C(C(=O)OC)=C1C", "note": "(stereo not given)", "activity change, negative = inhibition": "inactive: 8.6%"},
      {"smiles": "COCOc1ccc(Br)cc1C(=O)[C@@H]1O[C@@H]1c1cccc(OC)c1", "Potency": "inconclusive: 1.69 µM [inhibitor, partial curve, poor fit]"},
      {"smiles": "CCCCc1nc2c(c3c1C[C@H](C)OC3)CN(C(=O)Nc1cccc(C#N)c1)CC2", "Potency": "inconclusive: 1.35 µM [inhibitor, partial curve, poor fit]"},
      {"smiles": "Cc1cccc(C)c1Nc1oc(-c2ccccc2)nc1-c1cccc2ccccc12", "Potency": "inconclusive: 4.26 µM [inhibitor, partial curve, poor fit]"},
      {"smiles": "C[C@H]1COc2c(N3CCN(C)CC3)c(F)cc3c(=O)c(C(=O)NCc4ccco4)cn1c23", "activity change, negative = inhibition": "inactive: -1.61%"},
      {"smiles": "COC(=O)C(C(C)=O)C1c2ccccc2C=C(C)N1C(=O)OC", "note": "(stereo not given)", "Potency": "inactive"},
      {"smiles": "COC(=O)CCC(=O)OC1(C)C(=O)C=C2C=C(C3CC3)N(CCN3CCOCC3)C=C2C1=O", "note": "(stereo not given)", "activity change, negative = inhibition": "inactive: 0.86%"}
    ]}
  ]
}
